Experimental data published in PubChem BioAssay AID1508623 (National Center for Advancing Translational Sciences (NCATS), 2021).
In all, about 48,000 compounds went through this assay and about 450 (0.94%) were called active. Another 19% or so got no clear call; they are omitted. Calls come from the whole dose curve; as a rule, active = well fitted inhibition curve with a large enough effect; inconclusive = small, poorly fitted or top-dose-only effect; inactive = no such curve, though single readings can be large or run the other way. Some of the results follow.

Assay: Primary qHTS for Identification of Small Molecule Inhibitors of Huntingtin Promoter Activity; note: nearly all actives have a fitted effect of over 50% in size
Conditions: HEK293 HTT promoter firefly luciferase reporter (activity 0% = vehicle and -100% = no light), 24 h; series mostly up to 57.5 µM; activity change, negative = inhibition: at the top concentration
Procedure, shortened: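 HEK293 luciferase promoter-reporter cells (2,500/well) plated 24 h, then compounds added at up to 57.5 uM final for 24 h at 37 °C. Firefly luminescence by Dual-Glo, normalized to vehicle (0%) and zero RLU (-100%).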
Potency is the fitted concentration of half-maximal effect.

Activity change, negative = inhibition, inactive:
CC(C)CCn1c(=O)c2sccc2n2c(CCCC(=O)NCCc3ccccc3)nnc12 -10.6%, O=C1CC(c2ccccc2)c2c(n3ncnc3[nH]c2=O)N1 (stereo not given) -4.2%, C[C@@H](O)[C@H](N)C(=O)O -6.36% [at 25.2 µM], CC(C)N(C)C1CCN(S(=O)(=O)c2ccc3[nH]c(=O)ccc3c2)CC1 -6.98%, Cc1cccc(NC(=O)C2CCN(c3nc4ccccc4[nH]3)CC2)c1C -3.38%, O=C(Nc1ccc2nc(SCC(=O)N3CCCC3)sc2c1)c1cccc(Br)c1 -17.9%, Cc1ccc(C)c(CNC(=O)CCn2cccn2)c1 0.653%, Cc1cc(C)cc(N2C(=O)CSC23C(=O)N(CC(=O)Nc2ccc(F)cc2F)c2ccccc23)c1 (stereo not given) -22.1%, CCCCc1nn2c(=O)cc(COC(=O)c3ccc(NC(=O)CCc4ccccc4)cc3)nc2s1 -9.83%, CCCCN(C)S(=O)(=O)c1ccc(C(=O)Nc2sc3c(c2C(N)=O)CC(C)(C)NC3(C)C)cc1 -12.2%, CCCc1ccc(-c2ccc(C(=O)Oc3ccc(OCC)cc3)cc2)nc1 2.11%, Cc1ccc(CCNC(=O)CS(=O)Cc2nc(-c3ccccc3C)oc2C)cc1 (stereo not given) -27.1%, CCN(Cc1ccccc1)C(=O)Cn1c(=O)n(-c2ccc(Cl)cc2)c(=O)c2c(C)c(C(=O)N(C)C)sc21 2.58%, O=C(Cn1cnc2c(oc3ccccc32)c1=O)Nc1ccc(F)cc1F 2.4%, O=C(CSc1nc2c(oc3ccccc32)c(=O)n1Cc1ccco1)Nc1ccccc1Cl -15.8%, O=C(Cn1ncc2c3ccccc3n(Cc3cccc(Cl)c3)c2c1=O)NCc1cccs1 -12.3%, CCCc1ncc(C(=O)O)s1 4.52%, CCc1ccc(OCc2nc(-c3ccc(OC)cc3)no2)c(Br)c1 -12.5%, O=C(Nc1nc2ccccc2s1)c1ccc(S(=O)(=O)N2CCCC2)cc1 21.8%, COc1ccc(CNC(=O)CSc2nc(-c3ccc(OC)c(OC)c3)cc(C(F)(F)F)n2)cc1 -17.9%, CCCC12CN3CC(CCC)(CN(C1)C3c1ccccc1)C2=O (stereo not given) -20.9%, CCS(=O)(=O)c1nc(S(=O)(=O)c2ccc(C)cc2)c(NCCCOC)s1 -8.31%, Cc1cc2oc3c(c(=O)c2cc1C)C1(C(=O)N(C)c2ccccc21)N(CCO)C3=O (stereo not given) -15.4%, CCn1c(CNC(=O)c2ccc(OC)cc2)nnc1SCC(=O)Nc1ccc(C)cc1 -12.1%, Nc1cc(=O)nc(SCC(=O)Nc2ccc(F)cc2)n1CCc1ccccc1 -15.5% [at 11.5 µM], COc1ccc(N2CC(NC(=O)c3ccco3)CC2=O)cc1 (stereo not given) 3.58%, O=C(Nc1ccccc1Br)C(Cc1ccccc1)NS(=O)(=O)c1cccc2nsnc12 (stereo not given) -29.1%, COc1ccccc1NC(=O)C1CCN(C(=O)c2sc3nc[nH]c(=O)c3c2C)CC1 1.18%, CC(=O)c1ccc(NC(=O)c2ccc(-c3ccc(Cl)cc3)o2)cc1 13%, CCN(CC)CCNC(=O)c1ccc2nc(CCc3ccccc3)oc2c1 23.3%, Cc1cccc(CCNC(=O)CCc2c(C)nc3c4c(C)cc(C)nc4nn3c2C)c1 -13.5%, COc1ccc(CNC(=O)Cn2ncc3c([nH]c4ccccc43)c2=O)cc1 -2.11%, CCc1cccc(C)c1NC(=O)Cn1c(=O)cc(C)c2c(C)nn(-c3cccc(F)c3)c21 -24.5%, COc1ccccc1N1CCN(c2cc(C)nc3nc(-c4ccc(C)cc4)nn23)CC1 -9.23%, O=C(NCc1ccc(F)cc1)c1ccc(Nc2nc3ccccc3n3nnnc23)cc1 0.895%, Cc1c(C(=O)Nc2ccccc2F)sc2ncnc(N(C)C3CCCCC3)c12 -20.2%, CC(C)CN(CCCNC(=O)c1cc(=O)[nH]c2ccc(S(=O)(=O)N3CCCCCC3)cc12)CC(C)C -3.44%, CC(=O)N1c2nc(C(C)C)nn2C2(CCCCC2)[C@@H]2CCCC[C@@H]21 -9.09%, CCOc1ccc2oc(=O)cc(CN3CCN(c4cc(C)ccc4C)CC3)c2c1 -6.56%, O=C(Nc1ccc2oc(-c3ccc(O)c(Br)c3)nc2c1)c1cc2ccccc2o1 26%, Cc1nc2nc(NC(=O)c3ccccc3F)[nH]n2c(=O)c1Cl -2.9%, Cc1cccc(N2CCN(C(=O)c3cccn4c(=O)c5cc(Cl)ccc5nc34)CC2C)c1 (stereo not given) -2.91%, CC(C)(CO)[C@@H](O)C(=O)NCCCO 8.86%, O=C(CSc1nnc(-c2cccc(Cl)c2)o1)N1CCc2ccccc21 -5.98%, COc1cc(OC)c(NC(=O)C2=C(C)C(=O)OC23CCCCCC3)cc1Cl -8.2%, COc1ccccc1-c1nnc(SCC(=O)Nc2ccccc2F)o1 51.2%, Cc1ccc(Cl)cc1NC(=O)CCC(=O)N1CC(C)Sc2ccccc21 (stereo not given) -29.1%, O=C(NCCc1ccc(Cl)cc1)C1CCN(c2ncnc3c2nc2n3CCCCC2)CC1 -7.42%, Cc1ccc(-n2c(=O)c3c4c(sc3n(CC(=O)c3ccc(Cl)cc3)c2=O)CCC4)cc1C -18.4%

Potency, active:
CCC1CN(C(=O)N2CCC(C(=O)N3CCN(c4cccc(C)c4C)CC3)CC2)c2ccccc2O1 (stereo not given) 20 µM
